Some of the results follow. One pool of 16,384 single-stranded DNAs met each Rep nickase domain in vitro for 1 h at 37 °C with 3 µM enzyme; only the middle of the 90-letter strands is printed. A value is the log2 ratio of uncut reads to the pool without enzyme; more negative means more cut, near 0 not cut, and no call is made. Shares of all reads are compared; uncut strands gain when others are lost, and binding without cutting may add a little.
What follows are sequences tested on T1, Rep nickase domain of tomato yellow leaf curl virus (assay: uncleaved DNA left, log2 of reads against the no-enzyme library (log2 ratio); higher = less cleavage (more negative = more Rep cleavage of the k-mer); sequences stand for … in CTCGTCCG…ACCGGAGA).
T1 sequence (Rep 1-136, printed without the tag): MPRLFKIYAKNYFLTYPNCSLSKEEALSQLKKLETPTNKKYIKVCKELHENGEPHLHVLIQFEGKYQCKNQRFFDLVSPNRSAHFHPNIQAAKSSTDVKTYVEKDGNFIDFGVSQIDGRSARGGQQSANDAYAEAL
Method: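 A pool of 90-nt single-stranded DNAs with seven random bases just before the constant AC of the nick site (name = the seven bases) was cut by 3 µM recombinant His6-SUMO-tagged Rep nickase domain (300 nM DNA, 50 mM HEPES pH 8.0, 50 mM NaCl, 1 mM MnCl2, 1 h, 37 °C, three replicates). Uncut DNA was amplified and sequenced.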
GGATCCC was tested, and the “uncleaved DNA left (log2)” value was 0.148. For ATTCCCT, the “uncleaved DNA left (log2)” value was -0.0852. With TGGATTC the “uncleaved DNA left (log2)” value was 0.126. In the case of TAAAGGT, the “uncleaved DNA left (log2)” value is reported as -0.0986. With AATTGGA the “uncleaved DNA left (log2)” value was 0.0189. TACGGTC was tested, and the “uncleaved DNA left (log2)” value was -0.0446. GTCTACC was tested, and the “uncleaved DNA left (log2)” value was -0.0247. With TCCTACT the “uncleaved DNA left (log2)” value was -0.0345. For TCGCACC, the “uncleaved DNA left (log2)” value was -0.0967. TAACAGC was tested, and the “uncleaved DNA left (log2)” value was 0.0176. With CACCTAT the “uncleaved DNA left (log2)” value was -0.0197. With AAAGCCT the “uncleaved DNA left (log2)” value was -0.0427. For CGTCGTG, the “uncleaved DNA left (log2)” value was 0.0195. In the case of AGTGCAC, the “uncleaved DNA left (log2)” value is reported as 0.0597. In the case of CAAGAAC, the “uncleaved DNA left (log2)” value is reported as 0.0373. For CGCCAGC, the “uncleaved DNA left (log2)” value was -0.0899. For CCGCTGC, the “uncleaved DNA left (log2)” value was -0.197. For CAGGTAT, the “uncleaved DNA left (log2)” value was -0.0628. CGTCAGT was tested, and the “uncleaved DNA left (log2)” value was 0.0139. ACTCGAC was tested, and the “uncleaved DNA left (log2)” value was -0.0327. In the case of AACGTAC, the “uncleaved DNA left (log2)” value is reported as -0.0088. In the case of ACAACGG, the “uncleaved DNA left (log2)” value is reported as -0.00401. ACGAAAC was tested, and the “uncleaved DNA left (log2)” value was -0.0944. In the case of TGCCTTA, the “uncleaved DNA left (log2)” value is reported as -0.0861. For GTAATGG, the “uncleaved DNA left (log2)” value was -0.0132. With GCTAACG the “uncleaved DNA left (log2)” value was -0.0445. For AGGTGTG, the “uncleaved DNA left (log2)” value was 0.0581. With ACCCTCC the “uncleaved DNA left (log2)” value was 0.0461. In the case of AGGCGGC, the “uncleaved DNA left (log2)” value is reported as -0.0988. In the case of GATTTGT, the “uncleaved DNA left (log2)” value is reported as 0.0996. With CTGATAA the “uncleaved DNA left (log2)” value was 0.0393. In the case of CCCCCAA, the “uncleaved DNA left (log2)” value is reported as -0.251. For GGTATGG, the “uncleaved DNA left (log2)” value was 0.053. In the case of CTTACGC, the “uncleaved DNA left (log2)” value is reported as 0.095. ACGCTTT was tested, and the “uncleaved DNA left (log2)” value was -0.0941. For ATCGCCT, the “uncleaved DNA left (log2)” value was -0.1. For CCTGCGG, the “uncleaved DNA left (log2)” value was -0.128. With CAGCAGT the “uncleaved DNA left (log2)” value was 0.136. For CTTCGGC, the “uncleaved DNA left (log2)” value was -0.026. For CTTTCTC, the “uncleaved DNA left (log2)” value was -0.0428.

From the supplement of paper PMC7826260
